From publication PMC4126661 come the findings set out here.

Amino acid sequences for entries named in this document (tags omitted). A change or cut given only in a name is not applied to a line headed by its entry. Chains listed by the source or under a name are the forms on record and can include a tag or linker. Residues count along the entry.
UniProt Q9UDY8: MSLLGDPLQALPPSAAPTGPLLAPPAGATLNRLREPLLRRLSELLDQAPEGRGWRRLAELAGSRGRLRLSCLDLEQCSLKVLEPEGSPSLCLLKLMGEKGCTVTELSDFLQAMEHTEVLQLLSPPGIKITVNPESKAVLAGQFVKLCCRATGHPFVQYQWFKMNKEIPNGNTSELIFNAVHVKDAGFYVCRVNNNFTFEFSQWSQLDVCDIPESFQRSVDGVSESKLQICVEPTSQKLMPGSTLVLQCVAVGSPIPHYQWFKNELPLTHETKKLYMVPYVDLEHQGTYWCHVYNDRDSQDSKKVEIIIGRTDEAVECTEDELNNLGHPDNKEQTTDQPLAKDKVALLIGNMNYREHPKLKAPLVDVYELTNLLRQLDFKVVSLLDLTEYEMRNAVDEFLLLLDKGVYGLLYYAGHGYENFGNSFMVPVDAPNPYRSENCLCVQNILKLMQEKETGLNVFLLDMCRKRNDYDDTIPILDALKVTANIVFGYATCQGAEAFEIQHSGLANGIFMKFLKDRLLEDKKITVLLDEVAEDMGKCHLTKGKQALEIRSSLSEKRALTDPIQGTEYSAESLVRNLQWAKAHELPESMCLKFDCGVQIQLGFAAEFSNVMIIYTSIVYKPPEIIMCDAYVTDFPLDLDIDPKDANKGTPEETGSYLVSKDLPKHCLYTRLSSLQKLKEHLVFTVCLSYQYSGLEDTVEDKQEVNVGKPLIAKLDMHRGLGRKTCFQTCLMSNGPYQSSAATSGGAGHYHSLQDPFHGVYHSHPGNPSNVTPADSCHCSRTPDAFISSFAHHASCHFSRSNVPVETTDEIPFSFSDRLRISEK
Avi-tagged MALT1 p76 fragment (bio-IP of Figure 4C): residues 150-824 of Q9UDY8

For assay [1], the target named is Avi-tagged Ub-p76 (native MALT1 p76 released from an HA-ubiquitin fusion, C-terminal Avi-tag) (human) (UniProt Q9UDY8). In words: pull-down; streptavidin pull-down (bio-IP) of Avi-tagged Ub-p76 expressed together with Flag-p76 or Flag-MALT1; blots with a-MALT1-C, a-Flag and a-TRAF6; NDLB lysis buffer, streptavidin Dynabeads 1 h at 4°C.
In assay [2] the target is Avi-tagged MALT1 p76 fragment (bio-IP of Figure 4C) (human) (UniProt Q9UDY8). In words: pull-down; streptavidin pull-down (bio-IP) of biotinylated Avi-tagged MALT1 constructs transiently expressed in 293T cells; lysis in NDLB (20 mM Tris-Cl pH 7.6, 110 mM NaCl, 2 mM EDTA, 0.3% NP-40, 10% glycerol); streptavidin Dynabeads 1 h at 4°C; blots for endogenous TRAF6 and BCL10.
In assay [3] the target is Avi-tagged MALT1 (full length), expressed in 293T cells (human) (UniProt Q9UDY8). The assay is described as above.
Assay [4] deals with Avi-tagged MALT1-C464A, stably expressed in Jurkat T cells (human) (UniProt Q9UDY8). In words: pull-down; streptavidin pull-down (bio-IP) from Jurkat T cells with stable expression of Avi-tagged MALT1 or its mutants; NDLB lysis buffer, streptavidin Dynabeads 1 h at 4°C; immunoblot. On the technique in general: A western blot detects proteins with antibodies after separation by electrophoresis.

Assay [5] addresses Avi-tagged MALT1-R149A, stably expressed in Jurkat T cells (human) (UniProt Q9UDY8). Described as above.
The target of assay [6] is Avi-tagged wild-type MALT1, stably expressed in Jurkat T cells (human) (UniProt Q9UDY8). Described as above.
In assay [7] the target is Avi-tagged MALT1-RACA (R149A/C464A), stably expressed in Jurkat T cells (human) (UniProt Q9UDY8). Described as above.

Results are given in words; binding and its absence hold for the method and conditions named. In cells and extracts the contact can be indirect. Some results given as binding are weak or reduced against the parent protein; the word gives no strength.

With “Flag-tagged full-length MALT1, expressed in 293T cells (from UniProt Q9UDY8-1 1-824)”, the binding result in assay [1] is “no binding”.

On to “Avi-tagged Ub-p76 (native MALT1 p76 released from an HA-ubiquitin fusion, C-terminal Avi-tag) (from UniProt Q9UDY8-1 150-824) (domain or fragment)”, for which, in assay [1], the binding entry is on record as “binds”.

B1: endogenous BCL10 of 293T cells (protein, UniProt O95999 1-233)
chain: MEPTAPSLTEEDLTEVKKDALENLRVYLCEKIIAERHFDHLRAKKILSREDTEEISCRTSSRKRAGKLLDYLQENPKGLDTLVESIRREKTQNFLIQKITDEVLKLRNIKLEHLKGLKCSSCEPFPDGATNNLSRSNSDESNFSEKLRASTVMYHPEGESSTTPFFSTNSSLNLPVLEVGRTENTIFSSTTLPRPGDPGAPPLPPDLQLEEEGTCANSSEMFLPLRSRTVSRQ
Turning to B1, the binding result in assay [2] is “no binding”; in assay [3], “binds”.

B2: BCL10 of Jurkat T cells (protein, UniProt O95999 1-233)
chain: B1 chain
Regarding B2, the binding entry in assay [4], in assay [5], in assay [6] and in assay [7] was “binds” each time.
